In PubChem BioAssay AID488969 (Vanderbilt High Throughput Screening Facility, 2010):
Over roughly 110,000 compounds, “z-score” has its median near -0.1; the highest 2% begin near 2. This is one part of the list.

target: Metabotropic glutamate receptor 8 (Rattus norvegicus) (UniProt P70579); assay: rat mGluR8 modulators via GIRK flux, primary screen, cell-based, thallium flux, HTS (AID 488969); conditions: HEK293 rat mGluR8, GIRK (G protein-gated inwardly rectifying potassium channel) thallium flux, FluoZin2; at 10 µM; stronger effect = higher value; submaximal glutamate (EC20) added with thallium
Sequence of UniProt P70579 (P70579 whole entry, looked up): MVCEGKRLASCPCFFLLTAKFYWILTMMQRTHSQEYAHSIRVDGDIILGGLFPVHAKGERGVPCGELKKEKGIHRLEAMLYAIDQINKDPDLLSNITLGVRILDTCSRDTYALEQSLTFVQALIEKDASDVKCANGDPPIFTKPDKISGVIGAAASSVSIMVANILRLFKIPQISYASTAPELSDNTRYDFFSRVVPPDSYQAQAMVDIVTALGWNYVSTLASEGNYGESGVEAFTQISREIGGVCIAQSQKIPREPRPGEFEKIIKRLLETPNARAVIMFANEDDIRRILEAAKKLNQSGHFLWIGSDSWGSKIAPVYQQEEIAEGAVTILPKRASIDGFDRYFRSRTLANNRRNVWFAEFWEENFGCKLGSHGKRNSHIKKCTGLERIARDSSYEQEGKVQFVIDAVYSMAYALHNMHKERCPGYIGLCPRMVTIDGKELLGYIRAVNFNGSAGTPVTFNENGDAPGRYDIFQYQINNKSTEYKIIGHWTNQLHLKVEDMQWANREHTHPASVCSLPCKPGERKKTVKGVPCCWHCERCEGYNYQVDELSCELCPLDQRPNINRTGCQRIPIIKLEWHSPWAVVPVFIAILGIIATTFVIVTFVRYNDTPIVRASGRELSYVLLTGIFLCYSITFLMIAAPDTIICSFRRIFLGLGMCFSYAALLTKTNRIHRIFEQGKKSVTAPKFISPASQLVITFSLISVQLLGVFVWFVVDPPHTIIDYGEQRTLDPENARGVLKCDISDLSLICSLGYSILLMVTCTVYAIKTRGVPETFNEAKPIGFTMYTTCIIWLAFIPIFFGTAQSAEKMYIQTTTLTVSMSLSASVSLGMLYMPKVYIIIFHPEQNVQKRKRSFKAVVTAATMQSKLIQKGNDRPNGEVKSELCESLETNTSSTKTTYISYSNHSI

| Compound | z-score |
| --- | --- |
| CS(=O)(=O)c1ccc(Cl)c(NC(=O)c2cccc(Br)c2)c1 | -0.236 |
| O=C(Oc1ccc(Cl)c2ccccc12)N1CCCCC1 | -0.501 |
| CCCCCCCCNC(=O)c1cccnc1SCC(=O)Nc1ccc(OC)cc1OC | -0.0737 |
| Cc1ccc(NC(=O)CCn2cccc2)cc1Cl | -0.079 |
| O=C(Nc1cccnc1)c1cc(F)cc(F)c1 | -0.0565 |
| Cc1cc(C)cc(OCc2nc3ncc(Br)cc3[nH]2)c1 | -0.251 |
| CC(C)OC(=O)/C(=C\c1cccc2ccccc12)NC(=O)c1ccccc1 | -0.393 |
| COc1ccc(C2=NCC(CSc3nnnn3C)S2)cc1 (centres undefined) | 0.722 |
| Cc1ccc(N2CCN(CC(O)COC3CCCCC3)CC2)cc1 (centres undefined) | -1.49 |
| Cc1ccc(SCc2cc(=O)n3ccsc3n2)c(C)c1 | -0.245 |
| Cc1ccc(Cn2c(=N)n(CC(O)c3ccco3)c3ccccc32)cc1 (centres undefined) | 1.09 |
| O=C(c1ccc(S(=O)(=O)N2CCOCC2)cc1)N(c1ccccc1)C1C=CS(=O)(=O)C1 (centres undefined) | 0.344 |
| CCOc1cccc2c1OC1(C)CC2NC(=O)N1c1cccc(F)c1 (centres undefined) | 0.403 |
| CCC(=O)c1ccc(-c2ccccc2)cc1 | 0.149 |
| O=C(COc1ccc([N+](=O)[O-])cc1)Nc1ccc(N2CCCC2)cc1 | -0.0533 |
| Clc1cccc(OCCn2cncn2)c1Cl | -0.265 |
| O=C(CN1c2cccc3cccc(c23)S1(=O)=O)NCc1ccc2c(c1)OCO2 | 0.00783 |
| O=C(O)CCCN1C(=O)NC2NC(=O)NC21 (centres undefined) | 0.386 |
| O=C(Oc1cccnc1)c1cc(S(=O)(=O)N2CCCCC2)ccc1Cl | -0.62 |
| Cc1ccc2nc(CSc3nc(C)ccc3C#N)[nH]c2c1 | 0.728 |
| CC(O)CN1C(=O)C(CC(=O)Nc2ccc(Cl)cc2)SC1=Nc1ccccc1 (centres undefined) | -1.15 |
| O=C(Nc1cc(F)ccc1F)C1CCCO1 (centres undefined) | 0.011 |
| CCOc1ccc(C)cc1S(=O)(=O)N1CCCCC1 | 0.167 |
| CC12COC3(C(=O)Nc4ccc(Cl)cn4)CC1CCC32C (centres undefined) | -0.154 |
| Cn1c(=O)oc2cc(S(=O)(=O)NCc3ccccn3)ccc21 | -0.159 |

| Compound | z-score |
| --- | --- |
| CCOC(=O)N1CCN(C(=O)CSc2nnc(-c3cccs3)o2)CC1 | -0.0928 |
| O=C(OCc1nc2ccccc2[nH]1)C1CCCCC1 | -0.313 |
| COc1ccc(/C=N/NC(=O)c2c(C)n(C)c3ccc(OC)cc23)c(OC)c1 | -0.271 |
| O=C(Nc1ccc2c(c1)OCO2)N1CCN(c2ncccn2)CC1 | 0.0736 |
| CCSc1nnc(-c2sc3nnc(-c4ccccc4)c(-c4ccccc4)c3c2N)o1 | 1.14 |
| CCOC(=O)C1CCCCN1Cc1cc(OC)ccc1OC (centres undefined) | -0.121 |
| CCCCCc1nc(N)c(C#N)c(-c2ccco2)c1CCCC | 0.201 |
| COc1ccc(NC(=O)c2cccnc2Sc2ccccc2)c(OC)c1 | -0.415 |
| Cc1ccc(C)c(C(=O)CN2C(=O)CCC2=O)c1 | 0.0951 |
| N#Cc1cnn(Cc2ccccc2)c1N | -0.318 |
| Cc1ccccc1OCCNC(=S)Nc1ccccc1 | 0.073 |
| Nn1c(Cc2cccc3ccccc23)nnc1SCCOc1ccc(Br)cc1 | -0.185 |
| Cc1nc2nc(SCC(=O)C(C)(C)C)[nH]c2cc1Br | -0.6 |
| CCOC(=O)CNC(=O)CSc1nnc(-c2ccc(OC)cc2)n1CC | 0.372 |
| CCC(=O)Nc1nnc(-c2ccc(OC)cc2)o1 | -0.442 |
| COc1ccccc1N1CCN(C(=O)/C=C/c2ccc3c(c2)OCO3)CC1 | 0.13 |
| CCOC(=O)C1=C(O)/C(=C/c2ccc(OCC(=O)O)c(OCC)c2)SC1=Nc1ccc(OC)cc1 | -0.217 |
| C/C(=N\NC(=O)c1cc2ccccc2cc1O)c1ccc2c(c1)OCO2 | -0.494 |
| Cc1cc(N/N=C/c2ccc(Cl)cc2Cl)nc(NCc2ccccc2)n1 | -0.221 |
| O=[N+]([O-])c1ccc(-c2csc3[n+]2CCS3)cc1 | -0.167 |
| Cc1ccc(C(=O)NN2C(=O)/C(=C/c3cn(C)c4ccccc34)SC2=S)cc1 | -0.0891 |
| O=C(O)c1ccccc1C(=O)N(Cc1ccccc1)Cc1ccccc1 | -0.611 |
| CN(C(=O)COC(=O)c1cccnc1Nc1ccccc1F)C1CCS(=O)(=O)C1 (centres undefined) | -0.153 |
| O=C(NC1CCCCC1)C1CCCN(S(=O)(=O)c2cnc[nH]2)C1 (centres undefined) | 0.801 |
| FC(F)(F)c1cc(-c2ccccc2)nc(NC2CCCC2)n1 | 0.192 |

| Compound | z-score |
| --- | --- |
| C/C(=C\C(=S)Nc1ccccc1)Nc1ccccc1 | 0.249 |
| c1ccc(CN2CCN(C3=Nc4cccc5cccc3c45)CC2)cc1 | 0.281 |
| CC1CCCCC1NC(=O)C1CCCN1S(=O)(=O)c1cccc2nsnc12 (centres undefined) | 0.081 |
| N#Cc1ccsc1NC(=O)CSc1ncn[nH]1 | -0.0304 |
| O=C(OC1CCOC1=O)c1cc(-c2ccccc2)nc2ccccc12 (centres undefined) | -0.603 |
| Cc1cccc(OCc2nnc(SCC(=O)N3c4ccccc4CC3C)n2C)c1C (centres undefined) | -0.51 |
| CCOc1ccccc1Oc1ccc(C(F)(F)F)cn1 | 0.241 |
| COc1cccc(C(=O)N2CCN(c3ncccn3)CC2)c1 | -0.445 |
| O=C(NCc1cccnc1)/C(=C/c1ccc(-c2cccc(Cl)c2)o1)S(=O)(=O)c1ccccc1 | -0.494 |
| Cc1cc2cc(CNC(=O)CC(C)C)ccc2n1C | -0.375 |
| COc1ccc(/C=C2\C(=O)N(Cc3ccc(F)cc3)CC(=O)N2Cc2ccccc2)cc1 | -0.183 |
| Cc1ccc(NC(=S)c2ccccc2)cc1 | 0.00629 |
| CCOC(=O)CC(C#N)c1c[nH]c2ccccc12 (centres undefined) | -0.0366 |
| CCN(CC(=O)Nc1ccccc1C(=O)OC)S(=O)(=O)c1ccccc1 | -0.277 |
| C=CCN(CC=C)Cc1c(C)[nH]c2ccc(C(=O)OCC)cc2c1=O | -0.266 |
| COCCNC(=O)c1ccccc1NC(=O)c1ccccc1N(C)S(=O)(=O)c1ccccc1 | -0.125 |
| COC(=O)c1ccccc1NC(=S)NC(=O)c1ccc2ccccc2c1 | 0.231 |
| COc1ccc(NC(=O)C23CC4CC(C2)CC(c2ccc(C)cc2)(C4)C3)cc1 | -0.339 |
| Cc1cc(C)nc(SCc2ccc(C(=O)N/N=C/c3cccc(O)c3O)cc2)n1 | -0.453 |
| CCOC(=O)C(=NCCCN(C)C)NNc1ccc(Br)cc1 | -0.0604 |
| CC1CCN(c2c(NCc3ccc(C(=O)N4c5ccccc5CC4C)cc3)c(=O)c2=O)CC1 (centres undefined) | -0.373 |
| COCc1nnc(NC(=O)c2ccccc2[N+](=O)[O-])s1 | -0.228 |
| Cc1cc(C)nc(SCC(=O)Nc2sc3c(c2C#N)CCC(C)C3)n1 (centres undefined) | -0.257 |
| CCn1c(SCC(=O)c2[nH]c(C)c(C(C)=O)c2C)nnc1-c1ccccc1 | -0.0524 |
